# Experimental data: PubChem BioAssay (Tox21)
# Several values for one entry are separate records, joined by “and”; a condition that tells them apart may be missing. Equal entries are not always repeated. This list was built around the results that the source calls inconclusive (neither active nor inactive); the mix of calls is not that of the screen. For some of these results: Where the call is inconclusive, the potency comes from a doubtful curve fit. Activity calls are given as the source filed them. Unless noted, calls come from the whole dose curve; as a rule, active = well fitted curve in the direction sought with a large enough effect in the repeat runs; inconclusive = weak or mixed curves; inactive = no such curve, though single readings can be large; an effect the other way counts as inactive or inconclusive.
# Key:
# [1] = target: Progesterone receptor (Homo sapiens) (UniProt P06401); test: qHTS assay to identify small molecule antagonists of the progesterone receptor (PR) signaling pathway (AID 1346795; active = well fitted inhibition curve with a large enough effect in the signal ratio in the repeat runs, not every such curve was filed as active; inconclusive = weak or mixed curves; the % refers to the signal ratio; for activity change, negative = inhibition: % is set by controls: 0 for no effect and ±100 for the full control effect); conditions: PR-UAS-bla HEK293T, beta-lactamase FRET ratio, 16 h; activity change, negative = inhibition: at 92.4 µM (top of the series) unless noted
# Sequence of UniProt P06401 (P06401 whole entry, looked up): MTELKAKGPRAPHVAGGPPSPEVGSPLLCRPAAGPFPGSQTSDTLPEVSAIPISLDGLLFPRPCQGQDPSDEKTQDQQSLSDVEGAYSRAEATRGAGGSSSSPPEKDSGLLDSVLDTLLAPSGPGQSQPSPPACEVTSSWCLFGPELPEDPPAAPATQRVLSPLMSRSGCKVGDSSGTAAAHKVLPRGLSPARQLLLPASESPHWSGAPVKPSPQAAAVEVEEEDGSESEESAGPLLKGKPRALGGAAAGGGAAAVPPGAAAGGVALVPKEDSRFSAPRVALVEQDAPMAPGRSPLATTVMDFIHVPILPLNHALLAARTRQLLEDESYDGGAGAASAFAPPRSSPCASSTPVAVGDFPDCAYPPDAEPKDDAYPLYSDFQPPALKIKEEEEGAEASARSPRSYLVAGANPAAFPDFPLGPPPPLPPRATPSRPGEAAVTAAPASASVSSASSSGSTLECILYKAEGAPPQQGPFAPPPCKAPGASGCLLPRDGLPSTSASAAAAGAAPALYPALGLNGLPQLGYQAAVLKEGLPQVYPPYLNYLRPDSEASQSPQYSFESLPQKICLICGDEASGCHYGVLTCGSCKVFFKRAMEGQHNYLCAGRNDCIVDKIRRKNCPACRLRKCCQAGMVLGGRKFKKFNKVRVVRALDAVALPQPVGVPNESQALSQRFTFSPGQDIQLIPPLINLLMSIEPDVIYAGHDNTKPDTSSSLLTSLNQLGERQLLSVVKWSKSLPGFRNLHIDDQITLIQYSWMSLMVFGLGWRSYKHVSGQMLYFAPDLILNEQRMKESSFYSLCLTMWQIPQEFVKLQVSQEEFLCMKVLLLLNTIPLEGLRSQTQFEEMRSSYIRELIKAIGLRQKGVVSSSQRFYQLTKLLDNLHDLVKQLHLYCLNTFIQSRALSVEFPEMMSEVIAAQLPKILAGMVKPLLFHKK
# In short: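 Inhibition of R5020-induced (1 nM final) beta-lactamase reporter signal in PR-UAS-bla HEK293T cells was scored by FRET fluorescence after overnight (16 hr) compound treatment.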
# [2] = qHTS assay to identify small molecule antagonists of the progesterone receptor (PR) signaling pathway - cell viability counter screen (AID 1346798); note: nearly all actives have a fitted effect of over 50% in size; for activity change, negative = cytotoxicity: % is set by controls: 0 for no effect and ±100 for the full control effect
# In short: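 ATP content as viability readout: CellTiter-Glo luminescence, 30 min room temperature, in PR-UAS-bla HEK293T cells after 16 hr compound/R5020 treatment at 37C and 5% CO2.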
# [3] = qHTS assay to identify small molecule antagonists of the TGF-beta/Smad signaling pathway (AID 1346924; active = well fitted inhibition curve with a large enough effect in the signal ratio in the repeat runs, not every such curve was filed as active; inconclusive = weak or mixed curves; the % refers to the signal ratio); conditions: SBE-bla HEK293T, TGF-beta/Smad reporter, beta-lactamase ratio; activity, negative = inhibition: at 76.8 µM (top of the series) unless noted
# In short: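 SBE-bla HEK 293T cells were plated overnight, then received compound in DMSO plus TGF-beta1 (added as a 0.25 ng/mL solution) and were incubated 5 h at 37 C. Beta-lactamase reporter activity was read after 2 h at room temperature with LiveBLAzer B/G FRET substrate (ex 405, em 460/530 nm).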
# [4] = Caspase-3/7 induction in CHO-K1 cells by small molecules, qHTS cell viability counter screen (AID 1346979); conditions: CellTiter-Fluor fluorescence, 17 h; activity change, negative = cytotoxicity: at 92.4 µM (top of the series); note: nearly all actives have a fitted effect of over 35% in size
# In short: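 To flag cytotoxic compounds, treated CHO-K1 wild-type cells were given CellTiter-Fluor at 16hr and read fluorescently after 1hr at 37C; the caspase-3/7 luminescence was measured in these same wells.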
# [5] = Caspase-3/7 induction in HepG2 cells by small molecules, qHTS cell viability counter screen (AID 1346981); note: nearly all actives have a fitted effect of over 30% in size
# In short: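 Multiplexed with the caspase-3/7 assay: HepG2 cells, 16 hr compound treatment, CellTiter-Fluor viability detection by fluorescence.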
# [6] = target: Cytochrome P450 2D6 (Homo sapiens) (UniProt P10635); test: Cytochrome P450 Family 2 Subfamily D Member 6 (CYP2D6) small molecule antagonists: luciferase reporter qHTS assay (AID 1671196); note: nearly all actives have a fitted effect of over 50% in size
# Sequence of UniProt P10635 (P10635 whole entry, looked up): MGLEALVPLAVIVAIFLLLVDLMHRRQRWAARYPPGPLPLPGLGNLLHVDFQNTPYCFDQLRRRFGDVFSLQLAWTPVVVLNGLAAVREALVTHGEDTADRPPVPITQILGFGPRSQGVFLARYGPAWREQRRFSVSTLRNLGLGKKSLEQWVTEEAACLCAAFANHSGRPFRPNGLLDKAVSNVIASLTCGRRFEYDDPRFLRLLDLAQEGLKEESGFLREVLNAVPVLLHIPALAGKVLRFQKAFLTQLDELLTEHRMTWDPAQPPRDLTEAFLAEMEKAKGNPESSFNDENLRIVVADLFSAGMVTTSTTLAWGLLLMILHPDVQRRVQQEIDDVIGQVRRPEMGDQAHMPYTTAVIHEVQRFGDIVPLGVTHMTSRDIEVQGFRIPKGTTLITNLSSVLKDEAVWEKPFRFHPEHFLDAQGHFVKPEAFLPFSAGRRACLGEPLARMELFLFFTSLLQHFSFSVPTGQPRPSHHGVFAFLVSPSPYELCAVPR
# In short: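 Luminescence (RLU), read 20 min after detection reagent, indicated CYP2D6 conversion of proluciferin to luciferin during a 1 h NADPH-dependent reaction at room temperature.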
# [7] = target: Cytochrome P450 2C19 (Homo sapiens) (UniProt P33261); test: Cytochrome P450 Family 2 Subfamily C Member 19 (CYP2C19) small molecule antagonists: luciferase reporter qHTS assay (AID 1671197); note: nearly all actives have a fitted effect of over 65% in size
# Sequence of UniProt P33261 (P33261 whole entry, looked up): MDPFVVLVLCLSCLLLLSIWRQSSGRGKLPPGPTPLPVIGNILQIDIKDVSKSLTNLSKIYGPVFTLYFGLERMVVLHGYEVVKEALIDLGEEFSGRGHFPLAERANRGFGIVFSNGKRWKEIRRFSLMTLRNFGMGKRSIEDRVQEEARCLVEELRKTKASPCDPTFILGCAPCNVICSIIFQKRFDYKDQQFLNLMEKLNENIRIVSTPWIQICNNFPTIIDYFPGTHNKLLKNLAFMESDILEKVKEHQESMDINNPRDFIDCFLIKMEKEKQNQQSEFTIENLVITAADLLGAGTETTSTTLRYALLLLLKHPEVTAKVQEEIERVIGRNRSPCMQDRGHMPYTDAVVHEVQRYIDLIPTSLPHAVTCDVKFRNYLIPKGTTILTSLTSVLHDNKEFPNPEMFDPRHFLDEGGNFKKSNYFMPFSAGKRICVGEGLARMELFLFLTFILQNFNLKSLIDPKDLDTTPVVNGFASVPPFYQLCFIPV
# In short: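 CYP2C19 P450-Glo, 1536-well qHTS. Cpd + enzyme/proluciferin substrate 10 min RT; + NADPH regen, 37C 1 h; stop with luciferin detection reagent, 20 min RT, luminescence (RLU). Pos ctrl ketoconazole.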
# [8] = target: Cytochrome P450 2C9 (Homo sapiens) (UniProt P11712); test: Cytochrome P450 Family 2 Subfamily C Member 9 (CYP2C9) small molecule antagonists: luciferase reporter qHTS assay (AID 1671198); note: nearly all actives have a fitted effect of over 50% in size
# Sequence of UniProt P11712 (P11712 whole entry, looked up): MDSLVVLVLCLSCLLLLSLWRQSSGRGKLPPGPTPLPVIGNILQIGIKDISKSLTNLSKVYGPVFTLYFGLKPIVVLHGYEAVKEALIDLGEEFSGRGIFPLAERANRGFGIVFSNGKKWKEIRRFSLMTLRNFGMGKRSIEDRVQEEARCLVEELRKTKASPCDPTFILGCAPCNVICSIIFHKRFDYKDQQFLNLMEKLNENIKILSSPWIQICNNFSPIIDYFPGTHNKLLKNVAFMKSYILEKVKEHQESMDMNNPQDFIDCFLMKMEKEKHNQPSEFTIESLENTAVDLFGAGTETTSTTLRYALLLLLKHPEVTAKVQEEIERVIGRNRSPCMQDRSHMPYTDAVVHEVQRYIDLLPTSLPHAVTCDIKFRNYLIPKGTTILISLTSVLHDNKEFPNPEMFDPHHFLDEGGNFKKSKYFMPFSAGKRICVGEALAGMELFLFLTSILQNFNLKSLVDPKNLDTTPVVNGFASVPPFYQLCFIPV
# In short: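 CYP2C9 activity was measured with a P450-Glo proluciferin substrate. Enzyme–substrate mix was held with compound for 10 min at room temperature, then NADPH regeneration solution was added for 1 h at 37C. Luciferin product was read as luminescence.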
# [9] = qHTS assay to identify small molecule agonists of the TGF-beta/Smad signaling pathway (AID 1346859; active = well fitted activation curve with a large enough effect in the signal ratio in the repeat runs, not every such curve was filed as active; inconclusive = weak or mixed curves; the % refers to the signal ratio); conditions: SBE-bla HEK293T, TGF-beta/Smad beta-lactamase reporter, 5 h; activation: at 76.8 µM (top of the series)
# In short: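 Stable Smad binding element-beta-lactamase HEK 293T cells; 5 hr compound exposure at 37 C under 5% CO2; 2 hr room-temperature substrate step; fluorescence excited at 405 nm, collected at 460 nm and 530 nm.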
# [10] = qHTS assay to identify small molecule agonists of the progesterone receptor (PR) signaling pathway - cell viability counter screen (AID 1346799; calls by dose curve; note: nearly all actives have a fitted effect of over 45% in size; for activity change, negative = cytotoxicity: % is set by controls: 0 for no effect and ±100 for the full control effect)
# In short: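 Cytotoxicity in PR-bla HEK293T cells: 16 h compound, 37C; CellTiter-Glo added post-FRET read; luminescence after 30 min RT.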
# [11] = qHTS assay to identify small molecule antagonists of the TGF-beta/Smad signaling pathway - cell viability counter screen (AID 1346824); note: nearly all actives have a fitted effect of over 50% in size
# In short: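 SBE-bla HEK 293T cells were plated overnight at 37 C, then given compounds in DMSO plus TGF-beta1 (added as 0.25 ng/mL solution) for 5 hr. After the bla read, CellTiter-Glo was added to the same wells and luminescence read after 30 min at room temperature.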
# [12] = target: Nuclear receptor subfamily 1 group I member 2 (Homo sapiens) (UniProt O75469); test: Human pregnane X receptor (PXR) activation by small molecules, qHTS assay (AID 1346985); note: nearly all actives have a fitted effect of over 40% in size
# In short: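 DPX-2 cells (HepG2 co-transfected with a PXR response element and a CYP3A4-promoter luciferase construct) were seeded at 2,000 per well, rested 5 hr at 37C, then exposed to DMSO-dissolved compounds for 24 hr. Activation was read as luciferase luminescence.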
# [13] = target: Nuclear receptor subfamily 1 group I member 2 (Homo sapiens) (UniProt O75469); test: Human pregnane X receptor (PXR) small molecule agonists, qHTS assay (AID 1346982); note: nearly all actives have a fitted effect of over 35% in size; for activation: % is set by controls: 0 for no effect and ±100 for the full control effect
# In short: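 We seeded PXR-Luc HepG2 cells in assay medium containing 5% charcoal-stripped FBS, added compounds 5 hr later, incubated 24 hr, and read luminescence with ONE-Glo reagent.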
# [14] = Caspase-3/7 induction in HepG2 cells by small molecules, qHTS assay (AID 1346978); note: nearly all actives have a fitted effect of over 15% in size
# In short: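 Wild-type HepG2 cells (2,000/well) were settled 5 h at 37 C, 5% CO2, then exposed to compounds in DMSO for 17 h. Caspase-3/7 activity was read by luminescence 30 min after adding Caspase-Glo 3/7 reagent at room temperature.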
# [15] = Human pregnane X receptor (PXR) small molecule agonists, qHTS cell viability counter screen (AID 1346977); note: nearly all actives have a fitted effect of over 50% in size
# In short: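 Readout is CellTiter-Fluor fluorescence from PXR-Luc HepG2 cells. Plated cells rested 5hr, then were treated with compounds for 24hr at 37C and 5% CO2, with reagent present during the last hour.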
# Potency is the fitted concentration of half-maximal effect; tags give direction and shape of the fitted curve or compound fluorescence and quenching.
structure (smiles),measurement,setting,value
O=S(=O)(c1ccc(OCc2ccccc2)cc1)c1ccccc1O,Potency,[1],active: 48.6 µM
same,Potency,[2],"inconclusive: 9.69 µM [rising, full curve]"
same,"activity, negative = inhibition",[3],inconclusive: -5.27%
same,Potency,[4],active: 43.3 µM
same,Potency,[5],"inconclusive: 68.6 µM [cytotoxic, single point]"
same,Potency,[6],inconclusive: 79.6 µM [inhibitor]
same,Potency,[7],active: 6.33 µM
same,Potency,[8],active: 39.9 µM
COc1ccc(-c2cc(C(F)F)nn2-c2ccc(S(N)(=O)=O)cc2)cc1F,Potency,[1],inconclusive: 29.8 µM
same,Potency,[2],"inconclusive: 23.7 µM [rising, partial curve, poor fit]"
same,Potency,[9],"inconclusive: 9.52 µM [rising, partial curve]"
same,Potency,[7],"inconclusive: 9.77 µM [inhibitor, single point]"
same,Potency,[8],active: 8.71 µM
Nc1cc(-c2ccncc2)c[nH]c1=O,Potency,[1],inactive
same,Potency,[2],inactive
same,Potency,[10],inactive
same,Potency,[6],active: 31.7 µM and active: 17.4 µM
C/C=C/C(=O)N(CC)c1ccccc1C,Potency,[1],inactive
same,Potency,[2],"inconclusive: 1.19 µM [cytotoxic, single point]"
same,Potency,[11],inactive
same,Potency,[12],"inconclusive: 10 µM [activator, partial curve, poor fit]"
same,Potency,[8],"inconclusive: 13.8 µM [inhibitor, full curve, poor fit]"
CC(C)(C)c1csc(-c2cc3cc(OCc4ccccc4CC(=O)O)ccc3o2)n1,Potency,[1],active: 43.3 µM
same,Potency,[2],"inconclusive: 68.6 µM [cytotoxic, single point]"
same,Potency,[9],"inconclusive: 4.36 µM [rising, full curve]"
same,Potency,[3],"inconclusive: 17.4 µM [rising, partial curve]"
same,Potency,[5],active: 68.6 µM
Cc1ccc2c(c1)CCCN2,Potency,[1],inactive
same,Potency,[2],inactive
same,Potency,[10],"inconclusive: 61.1 µM [cytotoxic, single point]"
same,Potency,[13],"inconclusive: 27.3 µM [activator, single point]"
O=Cc1ccc(Cl)c([N+](=O)[O-])c1,"activity change, negative = inhibition",[1],inconclusive: -25.6%
same,Potency,[2],"inconclusive: 30.6 µM [rising, full curve, poor fit]"
same,"activity, negative = inhibition",[3],inconclusive: 15.7%
same,Potency,[14],"inconclusive: 77 µM [activator, partial curve, poor fit]"
same,Potency,[4],active: 68.6 µM
CNC(=O)C(c1ccccc1)c1ccccc1,"activity change, negative = inhibition",[1],inconclusive: -11.3%
same,Potency,[2],"inconclusive: 1.54 µM [cytotoxic, single point]"
same,Potency,[11],"inconclusive: 21.9 µM [cytotoxic, single point]"
same,"activity, negative = inhibition",[3],inconclusive: 0.0066%
same,Potency,[8],"inconclusive: 31.7 µM [inhibitor, partial curve]"
CCCCNS(=O)(=O)c1ccc(C)cc1,Potency,[1],"inconclusive: 30.6 µM [falling, partial curve]"
same,Potency,[2],inactive
same,Potency,[10],inactive
same,Potency,[13],"inconclusive: 61.1 µM [activator, partial curve]"
same,Potency,[6],"inconclusive: 79.6 µM [inhibitor, partial curve, poor fit]"
O=C(CCCN1CCN(c2ccc(F)cc2)CC1)NC1c2ccccc2CSc2ccccc21 (configuration not stated),"activity change, negative = inhibition",[1],inconclusive: -25.2% [at 42.5 µM]
same,Potency,[2],"inconclusive: 13.3 µM [cytotoxic, single point]"
same,"activity, negative = inhibition",[3],inconclusive: -9.32% [at 35.3 µM]
same,Potency,[15],active: 21.1 µM
same,Potency,[13],inactive
same,Potency,[6],active: 9.77 µM
same,Potency,[7],active: 4.36 µM
CCCc1c(OCCCOc2ccc(OCC(=O)O)cc2)ccc(C(C)=O)c1O,Potency,[1],"inconclusive: 27.3 µM [rising, single point]"
same,Potency,[2],"inconclusive: 34.4 µM [cytotoxic, partial curve, poor fit]"
same,Potency,[9],"inconclusive: 43.6 µM [rising, partial curve]"
same,Potency,[3],"inconclusive: 49 µM [rising, partial curve]"
same,Potency,[4],"inconclusive: 77 µM [cytotoxic, single point]"
same,Potency,[13],"inconclusive: 61.1 µM [activator, partial curve, poor fit]"
same,Potency,[7],"inconclusive: 89.4 µM [inhibitor, single point]"
same,Potency,[8],active: 8.94 µM
CC(C)Cc1ccc(CC(=O)O)cc1,"activity change, negative = inhibition",[1],inconclusive: -43.9% [at 42.5 µM]
same,Potency,[2],active: 29.8 µM
same,Potency,[10],"inconclusive: 33.5 µM [cytotoxic, partial curve, poor fit]"
same,Potency,[5],inactive
same,Potency,[6],"inconclusive: 34.7 µM [inhibitor, single point]"
same,Potency,[8],"inconclusive: 24.5 µM [inhibitor, partial curve]"
